Patent US20190367516A1 (Bayer Pharma Aktiengesellschaft, priority 2015, published 2019)

Each compound was assayed against T1, human M2 receptor (Homo sapiens, UniProt P08172). Conditions: read-out: Efficiency, M2-GIRK1/4 activation test; boosting of the acetylcholine effect at an EC20 acetylcholine concentration.
T1 sequence (P08172 1-466): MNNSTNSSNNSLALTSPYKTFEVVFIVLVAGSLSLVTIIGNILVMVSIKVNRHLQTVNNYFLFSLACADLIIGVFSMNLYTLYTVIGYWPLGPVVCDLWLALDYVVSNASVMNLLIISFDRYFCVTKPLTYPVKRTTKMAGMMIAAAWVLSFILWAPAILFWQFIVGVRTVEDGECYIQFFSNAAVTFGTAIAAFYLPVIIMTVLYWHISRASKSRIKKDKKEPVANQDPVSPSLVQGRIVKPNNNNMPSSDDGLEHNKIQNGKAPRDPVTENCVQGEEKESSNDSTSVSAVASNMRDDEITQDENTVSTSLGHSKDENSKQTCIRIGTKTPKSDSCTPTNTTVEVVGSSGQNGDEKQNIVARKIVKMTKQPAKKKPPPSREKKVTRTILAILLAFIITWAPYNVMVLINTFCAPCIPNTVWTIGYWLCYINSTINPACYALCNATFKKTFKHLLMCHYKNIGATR

**Q.** How did the Emax turn out when `CC[C@@H](NC(=O)c1cn(-c2ccc(F)cc2F)c2nc(N3CCCC3=O)ccc2c1=O)C(F)(F)F` [Example 337, 1-(2,4-Difluorophenyl)-4-oxo-7-(2-oxopyrrolidin-1-yl)-N-[(2R)-1,1,1-trifluorobutan-2-yl]-1,4-dihydro-1,8-naphthyridine-3-carboxamide] was run?
**A.** Its Emax is 68%.

**Q.** Which Emax does the source give for `O=C(N[C@@H](C1CC1)C(F)(F)F)c1cn(-c2c(F)cc(F)cc2Cl)c2nc(N3C[C@@H](O)CC3=O)ccc2c1=O` [Example 338, 1-(2-Chloro-4,6-difluorophenyl)-N-[(1 S)-1-cyclopropyl-2,2,2-trifluoroethyl]-7-[(4S)-4-hydroxy-2-oxopyrrolidin-1-yl]-4-oxo-1,4-dihydro-1,8-naphthyridine-3-carboxamide] here?
**A.** Its Emax is 99%.

**Q.** `C[C@@H](COC(F)(F)F)NC(=O)c1cn(-c2c(F)cc(F)cc2F)c2nc(N3C[C@@H](O)CC3=O)ccc2c1=O` [Example 339, 7-[(4S)-4-Hydroxy-2-oxopyrrolidin-1-yl]-4-oxo-N-[(2S)-1-(trifluoromethoxy)propan-2-yl]-1-(2,4,6-trifluorophenyl)-1,4-dihydro-1,8-naphthyridine-3-carboxamide] was tested. Which Emax did it give?
**A.** The Emax was 94%.

**Q.** Which Emax does the source give for `CC[C@H](NC(=O)c1cn(-c2c(F)cc(F)cc2Cl)c2nc(N3CCNC3=O)ccc2c1=O)C(F)(F)F` [Example 340, 1-(2-Chloro-4,6-difluorophenyl)-4-oxo-7-(2-oxoimidazolidin-1-yl)-N-[(2S)-1,1,1-trifluorobutan-2-yl]-1,4-dihydro-1,8-naphthyridine-3-carboxamide] here?
**A.** Its Emax is 100%.

**Q.** `C[C@H](NC(=O)c1cn(-c2c(F)cc(F)cc2F)c2nc(N3CCNC3=O)ccc2c1=O)C(F)(F)F` [Example 341, 4-Oxo-7-(2-oxoimidazolidin-1-yl)-1-(2,4,6-trifluorophenyl)-N-[(2S)-1,1,1-trifluoropropan-2-yl]-1,4-dihydro-1,8-naphthyridine-3-carboxamide] was tested. Which Emax did it give?
**A.** Its Emax is 86%.

**Q.** How did the Emax turn out when `O=C(N[C@H](C1CC1)C(F)(F)F)c1cn(-c2c(F)cc(F)cc2F)c2nc(N3CCNC3=O)ccc2c1=O` [Example 342, N-[(1R)-1-Cyclopropyl-2,2,2-trifluoroethyl]-4-oxo-7-(2-oxoimidazolidin-1-yl)-1-(2,4,6-trifluorophenyl)-1,4-dihydro-1,8-naphthyridine-3-carboxamide] was run?
**A.** The Emax was 93.7%.

**Q.** `CC[C@H](NC(=O)c1cn(-c2c(F)cc(F)cc2F)c2nc(N3CCNC3=O)ccc2c1=O)C(F)(F)F` [Example 343, 4-Oxo-7-(2-oxoimidazolidin-1-yl)-N-[(2S)-1,1,1-trifluorobutan-2-yl]-1-(2,4,6-trifluorophenyl)-1,4-dihydro-1,8-naphthyridine-3-carboxamide] was tested. Which Emax did it give?
**A.** Its Emax is 90.5%.

**Q.** How did the Emax turn out when `CC[C@@H](NC(=O)c1cn(-c2ccc(F)cc2F)c2nc(N3CCCN(CC)C3=O)ccc2c1=O)C(F)(F)F` [Example 344, 1-(2,4-Difluorophenyl)-7-(3-ethyl-2-oxotetrahydropyrimidin-1(2H)-yl)-4-oxo-N-[(2R)-1,1-trifluorobutan-2-yl]-1,4-dihydro-1,8-naphthyridine-3-carboxamide] was run?
**A.** Its Emax is 95.5%.

**Q.** `O=C(N[C@@H](C1CC1)C(F)(F)F)c1cn(-c2c(F)cccc2F)c2nc(N3C[C@@H](O)[C@H](O)C3)ccc2c1=O` [Example 345, N-[(1 S)-1-Cyclopropyl-2,2,2-trifluoroethyl]-1-(2,6-difluorophenyl)-7-[(3R,4R)-3,4-dihydroxypyrrolidin-1-yl]-4-oxo-1,4-dihydro-1,8-naphthyridine-3-carboxamide] was tested. Which Emax did it give?
**A.** The Emax was 100%.

**Q.** Which Emax does the source give for `CC[C@H](NC(=O)c1cn(-c2c(F)cccc2Cl)c2nc(N3C[C@@H](O)[C@H](O)C3)ccc2c1=O)C(F)(F)F` [Example 346, 1-(2-Chloro-6-fluorophenyl)-7-[(3R,4R)-3,4-dihydroxypyrrolidin-1-yl]-4-oxo-N-[(2S)-1,1-trifluorobutan-2-yl]-1,4-dihydro-1,8-naphthyridine-3-carboxamide] here?
**A.** The Emax was 96%.

**Q.** How did the Emax turn out when `O=C(N[C@@H](C1CC1)C(F)(F)F)c1cn(-c2c(F)cccc2Cl)c2nc(N3C[C@@H](O)[C@H](O)C3)ccc2c1=O` [Example 347, 1-(2-Chloro-6-fluorophenyl)-N-[(1 S)-1-cyclopropyl-2,2,2-trifluoroethyl]-7-[(3R,4R)-3,4-dihydroxypyrrolidin-1-yl]-4-oxo-1,4-dihydro-1,8-naphthyridine-3-carboxamide] was run?
**A.** Its Emax is 92.5%.

**Q.** Which Emax does the source give for `CC[C@H](NC(=O)c1cn(-c2c(F)cccc2F)c2nc(N3C[C@@H](O)[C@H](O)C3)ccc2c1=O)C(F)(F)F` [Example 348, 1-(2,6-Difluorophenyl)-7-[(3R,4R)-3,4-dihydroxypyrrolidin-1-yl]-4-oxo-N-[(2S)-1,1,1-trifluorobutan-2-yl]-1,4-dihydro-1,8-naphthyridine-3-carboxamide] here?
**A.** Its Emax is 100%.

**Q.** Which Emax does the source give for `O=C(NC1(C(F)(F)F)CCCC1)c1cn(-c2c(F)cc(F)cc2F)c2nc(N3C[C@@H](O)[C@H](O)C3)ccc2c1=O` [Example 350, 7-[(3R,4R)-3,4-Dihydroxypyrrolidin-1-yl]-4-oxo-N-[1-(trifluoromethyl)cyclopentyl]-1-(2,4,6-trifluorophenyl)-1,4-dihydro-1,8-naphthyridine-3-carboxamide] here?
**A.** The Emax was 98.5%.

**Q.** `CC[C@H](NC(=O)c1cn(-c2c(F)cccc2Cl)c2nc(N3C[C@@H](O)CC3=O)ccc2c1=O)C(F)(F)F` [Example 351, 1-(2-Chloro-6-fluorophenyl)-7-[(4S)-4-hydroxy-2-oxopyrrolidin-1-yl]-4-oxo-N-[(2S)-1,1,1-trifluorobutan-2-yl]-1,4-dihydro-1,8-naphthyridine-3-carboxamide] was tested. Which Emax did it give?
**A.** Its Emax is 100%.

**Q.** With `O=C(N[C@@H](C1CC1)C(F)(F)F)c1cn(-c2c(F)cccc2Cl)c2nc(N3C[C@@H](O)CC3=O)ccc2c1=O` [Example 352, 1-(2-Chloro-6-fluorophenyl)-N-[(1S)-1-cyclopropyl-2,2,2-trifluoroethyl]-7-[(4S)-4-hydroxy-2-oxopyrrolidin-1-yl]-4-oxo-1,4-dihydro-1,8-naphthyridine-3-carboxamide] as the compound, how does the Emax read?
**A.** The Emax was 100%.

**Q.** With `C[C@@H](COC(F)(F)F)NC(=O)c1cn(-c2c(F)cc(F)cc2F)c2nc(N3C[C@@H](O)[C@H](O)C3)ccc2c1=O` [Example 353, 7-[(3R,4R)-3,4-Dihydroxypyrrolidin-1-yl]-4-oxo-N-[(2S)-1-(trifluoromethoxy)propan-2-yl]-1-(2,4,6-trifluorophenyl)-1,4-dihydro-1,8-naphthyridine-3-carboxamide] as the compound, how does the Emax read?
**A.** The Emax was 99%.

**Q.** Which Emax does the source give for `CC[C@@H](NC(=O)c1cn(-c2ccc(F)cc2F)c2nc(N3CCC4CC4(O)C3)ccc2c1=O)C(F)(F)F` (stereo partly drawn) [Example 354, 1-(2,4-Difluorophenyl)-7-[1-hydroxy-3-azabicyclo[4.1.0]hept-3-yl]-4-oxo-N-[(2R)-1,1,1-trifluorobutan-2-yl]-1,4-dihydro-1,8-naphthyridine-3-carboxamide] here?
**A.** Its Emax is 93%.

**Q.** For `CC[C@@H](NC(=O)c1cn(-c2ccc(F)cc2F)c2nc(N3CC(O)C4(CC4)C3)ccc2c1=O)C(F)(F)F` (stereo partly drawn) [Example 355, 1-(2,4-Difluorophenyl)-7-[7-hydroxy-5-azaspiro[2.4]hept-5-yl]-4-oxo-N-[(2R)-1,1,1-trifluorobutan-2-yl]-1,4-dihydro-1,8-naphthyridine-3-carboxamide], which Emax is on record?
**A.** Its Emax is 99.5%.

**Q.** `CC[C@@H](NC(=O)c1cn(-c2ccc(F)cc2F)c2nc(N3CC(O)C(C)(C)C3)ccc2c1=O)C(F)(F)F` (stereo partly drawn) [Example 356, 1-(2,4-Difluorophenyl)-7-[4-hydroxy-3,3-dimethylpyrrolidin-1-yl]-4-oxo-N-[(2R)-1,1,1-trifluorobutan-2-yl]-1,4-dihydro-1,8-naphthyridine-3-carboxamide] was tested. Which Emax did it give?
**A.** The Emax was 92.5%.
